The results in this text go back to patent US11542275B2, “Substituted imidazolidin-2-one derivatives as PRMT5 inhibitors” (Aurigene Discovery Technologies Limited, priority 2018, dated 2023).

What is called IC50 is the concentration that gives 50% inhibition. Higher therefore signals weaker potency in that assay.

The target of the assay is PRMT5/MEP50 Complex (Homo sapiens (Human), UniProt O14744). Kind of assay: PRMT5 inhibition based on TR-FRET assay. The format is biochemical. Particulars: 32 nM PRMT5:MEP50 complex, 50 nM Histone-H4 peptide, 1 μM SAM, 90 minutes at room temperature. The source says:
Protein arginine methyltransferase 5 (PRMT5) is a type II arginine methyltransferase that catalyze mono- and symmetric demethylation on arginine residues of histone or non-histone proteins in presence of S-adenosylmethionine (AdoMet or SAM) a cofactor responsible for donating the methyl group. PRMT5 is reported to be overexpressed in several human cancers. To identify compounds that inhibit the PRMT5 and decrease its activity, a TR-FRET based assay has been established. Time-resolved fluorescence resonance energy transfer (TR-FRET) HTS assays are homogeneous proximity assays where the interaction of two dye-labeled binding partners is detected by the energy transfer between a donor and an acceptor dye, and the subsequent light emission by the acceptor dye. PRMT5 catalyzes Histone H4 peptide which is biotin tagged to the Lysine amino acid at carboxyl end, in presence of S-adenosyl-1-methionine (SAM) to methylate the peptide. The antibody specific to mono methylated H4 peptide (H4R3) with Ig conjugate binds to the methylated peptide, indirectly binding to the Europium lanthanide. […]
The compound dilutions were prepared as 7.5% DMSO stock solutions in assay buffer. […] The plates were then read on Victor-3 with Excitation at 340 nm and Emissions collected at 615 and 665 nm in TR-FRET protocol. […]
For orientation: In TR-FRET formats the signal depends on donor and acceptor labels being close together.

The compound `CC(=O)N1CCN(c2ccc(CN3CCN(CC(O)CN4Cc5ccccc5C4)C3=O)nc2)CC1` (centres unmarked) [Compound 84, 1-((5-(4-acetylpiperazin-1-yl)pyridin-2-yl)methyl)-3-(2-hydroxy-3-(isoindolin-2-yl)propyl)imidazolidin-2-one] registered an IC50 of 197 nM. This counts as sub-micromolar. In the case of `O=C1N(Cc2ccc(C3CCOCC3)cn2)CCN1C[C@H](O)CNC1Cc2ccccc2C1` [Compound 89, (R)-1-(3-((2,3-dihydro-1H-inden-2-yl)amino)-2-hydroxypropyl)-3-((5-(tetrahydro-2H-pyran-4-yl)pyridin-2-yl)methyl)imidazolidin-2-one] it was 15 nM.
